# In article PMC4336329 (PLoS ONE, 2015):
# About 14,000 (4.5%) of roughly 310,000 compounds showed an effect of 50% or more. Effects have a minus sign here. The list shows a part of the results.
# Target: human ether-à-go-go-related gene (hERG) potassium channel (human, UniProt Q12809)
# Assay: primary screen, population patch clamp on CHO cells stably expressing hERG
# 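Note: peak tail current of the secondary pulse compared with the same well before compound.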
# Sequence of human ether-à-go-go-related gene (hERG) potassium channel (Q12809 whole entry, looked up): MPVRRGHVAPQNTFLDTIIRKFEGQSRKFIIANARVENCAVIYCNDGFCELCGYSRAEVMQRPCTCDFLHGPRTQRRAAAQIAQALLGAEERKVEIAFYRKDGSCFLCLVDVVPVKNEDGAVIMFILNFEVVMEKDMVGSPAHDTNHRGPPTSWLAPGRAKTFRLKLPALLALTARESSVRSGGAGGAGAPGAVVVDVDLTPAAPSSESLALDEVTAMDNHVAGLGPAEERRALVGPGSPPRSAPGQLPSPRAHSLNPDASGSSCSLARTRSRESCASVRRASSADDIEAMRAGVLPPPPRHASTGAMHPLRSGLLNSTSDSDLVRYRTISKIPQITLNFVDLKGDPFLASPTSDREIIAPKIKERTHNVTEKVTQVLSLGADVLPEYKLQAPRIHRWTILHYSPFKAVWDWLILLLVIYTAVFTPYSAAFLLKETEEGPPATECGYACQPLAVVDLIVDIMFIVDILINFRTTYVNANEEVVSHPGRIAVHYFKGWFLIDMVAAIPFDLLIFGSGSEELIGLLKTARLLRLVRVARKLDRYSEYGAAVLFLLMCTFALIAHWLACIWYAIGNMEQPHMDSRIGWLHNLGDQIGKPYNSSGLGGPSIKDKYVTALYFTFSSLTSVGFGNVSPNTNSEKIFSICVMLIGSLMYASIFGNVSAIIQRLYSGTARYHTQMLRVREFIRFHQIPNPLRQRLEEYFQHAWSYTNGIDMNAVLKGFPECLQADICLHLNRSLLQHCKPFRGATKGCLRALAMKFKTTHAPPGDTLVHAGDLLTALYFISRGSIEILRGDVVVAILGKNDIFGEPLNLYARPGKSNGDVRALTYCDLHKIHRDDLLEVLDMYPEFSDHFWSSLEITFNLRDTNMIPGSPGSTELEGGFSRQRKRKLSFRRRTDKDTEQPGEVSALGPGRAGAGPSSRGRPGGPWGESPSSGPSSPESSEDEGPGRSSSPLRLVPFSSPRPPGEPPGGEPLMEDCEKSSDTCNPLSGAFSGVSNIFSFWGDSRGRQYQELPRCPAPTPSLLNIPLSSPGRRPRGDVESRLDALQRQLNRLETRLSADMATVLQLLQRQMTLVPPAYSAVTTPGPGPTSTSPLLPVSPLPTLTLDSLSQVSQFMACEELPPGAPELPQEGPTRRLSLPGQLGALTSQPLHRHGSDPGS
row,SMILES,"hERG current change (%, negative = inhibition) at 10uM [%]"
1,Cc1ccccc1Cn1ccc(-c2ccc3c(c2)OCO3)n1,-10.7
2,CCOc1ccc(S(=O)(=O)Nc2ccc(S(=O)(=O)N3CCOCC3)cc2)cc1,-13.3
3,COC(=O)c1ccc(NC2CC(=O)N(c3ccccc3C)C2=O)cc1 (stereo not drawn),-11
4,CCN(CCC(=O)Nc1cc(OC)cc(OC)c1)Cc1ccccc1,-65.1
5,CCN(CC)C(=O)CSc1nc(C)cc(-c2cccs2)c1C#N,9.22
6,NC(=O)CC(NC(=O)c1ccccc1)C(=O)O (stereo not drawn),-5.25
7,Cc1c(NC(=O)c2ccccc2N)cccc1C(=O)O,2.12
8,O=C(COC(=O)c1cccs1)NCCN1C(=O)CSC1=O,14
9,CC(C)C(NS(=O)(=O)c1cccc(C(F)(F)F)c1)C(=O)O (stereo not drawn),6.62
10,O=C(Cc1ccccc1)NCC(=O)N1CCN(c2ccccc2F)CC1,2.37
11,CCOC(=O)Nc1c(O)ccc2oc(C)c(-c3ccccc3)c12,-1.49
12,Cc1cccc(NC(=O)c2cc([N+](=O)[O-])ccc2NCC2CCCO2)n1 (stereo not drawn),-80.9
13,O=C(CSc1nncn1-c1ccccc1)Nc1ccc(F)cc1F,4.86
14,CCOC(=O)c1c(NC(=O)CSc2nncn2C)sc(C)c1C,-4.02
15,C(=C\c1nccc2c1[nH]c1ccccc12)/c1ccccc1,4.97
16,C/C(NCCN1CCOCC1)=C(\C#N)C(N)=O,3.26
17,CC(=O)N1CCc2cc(S(=O)(=O)CCC(=O)NCc3ccc(F)cc3)ccc21,-13.8
18,COc1ccc(S(=O)(=O)NCC(c2ccc3c(c2)OCO3)N2CCN(C)CC2)cc1OC (stereo not drawn),-15.5
19,COc1ccc(-c2cnc(N)n2C)cc1,-11.4
20,CC(=O)C1=C(O)C(=O)N(c2ccc(Br)cc2)C1c1ccc(Br)cc1 (stereo not drawn),8.61
21,Cc1ccc(CS(=O)(=O)c2nsc(C)c2C#N)cc1,10.1
22,O=C(CN1CCCSc2ccccc21)N1CCN(S(=O)(=O)c2cccc(F)c2)CC1,-21
23,O=C(CC1Sc2ccccc2NC1=O)NNC(=O)Nc1ccc(Cl)cc1 (stereo not drawn),9.57

row,SMILES,"hERG current change (%, negative = inhibition) at 10uM [%]"
1,CCc1ccc(S(=O)(=O)Nc2nccs2)cc1,8.86
2,COC(=O)Cn1cnc2scc(-c3ccc(C)cc3)c2c1=O,7.31
3,Cc1sc2nc(CSC(C)C(=O)Nc3ccccn3)[nH]c(=O)c2c1C (stereo not drawn),-5.09
4,Cc1nc(NC(=O)CSc2nncs2)c(Cl)cc1Cl,6.72
5,COc1ccccc1CCNC(=O)C1CCCO1 (stereo not drawn),-3.04
6,CCC(C)NC(=O)C1=C(C)C(=O)OC12CCC(C)CC2 (stereo not drawn),6.17
7,O=C(COc1ccccc1/C=C\c1[nH]c(=O)[nH]c(=O)c1[N+](=O)[O-])Nc1ccccc1,28.1
8,COc1ccc(-c2nnc(SCC(=O)c3cccs3)o2)c(OC)c1,17.6
9,O=C(N/N=C/c1coc2ccccc2c1=O)c1ccccc1Br,-0.324
10,CCOC(=O)Cn1c(=O)oc2cc(S(=O)(=O)Nc3ccc(N(CC)CC)cc3C)ccc21,-1.88
11,CN(CC(=O)Nc1cccc(F)c1)C(=O)c1cn2ccccc2n1,-5
12,O=C(COC(=O)/C=C/c1nc2ccccc2s1)Nc1ccccc1Oc1ccccc1,-5.33
13,Cc1ccc(S(=O)(=O)N2CCOCC2)cc1NC(=O)c1cc([N+](=O)[O-])ccc1N1CCOCC1,-67.7
14,CC(Sc1nc(C2CC2)n(-c2ccccc2)n1)C(=O)c1c(N)n(C)c(=O)n(C)c1=O (stereo not drawn),-21.3
15,CN(Cc1cnn(C)c1)C(=O)c1ccc(OC2CCN(CCc3ccccc3)CC2)cc1,-42.9
16,CC(C)(C)c1cc(C(=O)NNC(=O)c2ccc(C(F)(F)F)cc2)no1,7.55
17,Cn1nc(Cc2cccc3ccccc23)c(C#N)c1N,8.28
18,CCOc1ccc(-n2c(SCc3nc(-c4cccs4)no3)nnc2-c2ccncc2)cc1,-59.7
19,CCCCn1c(N)c(N(CCOC)C(=O)c2cc(S(=O)(=O)N3CCCCC3)ccc2C)c(=O)[nH]c1=O,9.36
20,Cc1cccc(C(=O)NNC(=O)c2ccccc2O)c1,13.8
21,COC(=O)c1cc(S(=O)(=O)N2CCC(C(N)=O)CC2)oc1C,14.7
22,NNC(=O)Nc1cccc(C(F)(F)F)c1,14.4
23,O=c1cc(CCl)[nH]c2nc3ccccc3n12,-6.02

row,SMILES,"hERG current change (%, negative = inhibition) at 10uM [%]"
1,Cc1c(NC(=O)COc2cccc(F)c2)c(=O)n(-c2ccccc2)n1C,-0.593
2,O=C(Nc1cccnc1Cl)C1=NN(c2ccccc2)C(=O)CC1,-14
3,CC1CCN(S(=O)(=O)c2ccc(C(=O)Nc3nnc(C4CC4)o3)cc2)CC1,-9.81
4,Cc1nc(NCC2CC2)c2nnn(Cc3ccccc3)c2n1,-1.52
5,C[N+]1(CC(=O)OCCCc2ccccc2)CCCC1.[I-],15.6
6,CCOc1ccccc1C(=O)Nc1nncs1,5.31
7,COc1ccccc1NS(=O)(=O)c1ccc(C(=O)NCCCn2ccnc2)cc1,7.77
8,O=C(CSc1nnc(-c2ccc(OC(F)F)cc2)o1)NCc1cccs1,-40.7
9,COc1ccc(N2CC(C)Cn3c2nc2c3c(=O)n(Cc3ccccc3F)c(=O)n2C)c(OC)c1 (stereo not drawn),-47.4
10,COc1cc(NC(=O)c2ccco2)c(C(=O)O)cc1OC,-6.08
11,Cc1cc(CNC(=O)COc2ccc(C)c(C)c2)c2ccccc2n1,2.15
12,O=C(Nc1ccc[n+](CC(=O)c2cccc3ccccc23)c1)c1ccccc1.[Br-],-58.9
13,O=C(OCCN1C(=O)CCC1=O)c1ccc(S(=O)(=O)N2CCCCC2)cc1,4.21
14,COc1cccc(-c2nn(-c3ccc(C)cc3)cc2C(=O)NCC2CCCO2)c1 (stereo not drawn),-62.2
15,CC(C)NC(=S)N/N=C/c1cccs1,7.11
16,CC1(c2ccccc2)NC(=O)N(CC(=O)Nc2ccc([N+](=O)[O-])cc2)C1=O (stereo not drawn),-27.3
17,COc1ccsc1C(=O)N1CCN(Cc2ccc3c(c2)OCO3)CC1,-16.5
18,COc1cccc(N2CN(C3CCCCC3)CNC2=S)c1,14.7
19,N#Cc1sc(=O)[nH]c1Cl,11.8
20,CC(=O)Nc1ccc(Sc2ncccc2C(=O)Nc2cc(Cl)cc(Cl)c2)cn1,26.7
21,CN1CCN(c2nc(NCCOC34CC5CC(CC(C5)C3)C4)nc(OCC(F)(F)F)n2)CC1,-60.8
22,CCOc1ccccc1NC(=O)CN1CCc2ccccc2C1,-18.3
23,COc1ccc(-n2nc(C(=O)NCC(=O)N3CCN(c4ccccc4)CC3)c3ccccc3c2=O)c(OC)c1,2.3

row,SMILES,"hERG current change (%, negative = inhibition) at 10uM [%]"
1,CCOc1ccccc1Nc1ccnc2cc(Cl)ccc12,-57.2
2,CC(=O)NC12CC3CC(C1)CC(C(=O)Nc1nc4ccc(F)cc4s1)(C3)C2,-56.9
3,Cc1cc(C)n2nc(C(=O)Oc3ccc4c(c3)OCO4)nc2n1,8.26
4,CC(C)COC(=O)/C(C#N)=C/c1c[nH]c2ccccc12,3.29
5,O=C(c1cn(-c2ccccc2)nc1-c1ccc(F)cc1)N1CCOCC1,-12.4
6,COc1ccccc1/C=C/C=N/NC(=O)c1ccc(=O)n(C)c1,-7.06
7,Cc1cc(C)c(C)c(S(=O)(=O)NCC(=O)Nc2ccc(F)cc2)c1C,14.6
8,COc1ccccc1CNC(=O)COC(=O)c1ccc(N2CCCC2=O)cc1,15.6
9,Cc1ccc(N(CC(=O)N2CCN(c3ccccc3F)CC2)S(=O)(=O)c2c(C)noc2C)cc1,20
10,Cc1ccc(S(=O)(=O)N(c2ccc(Br)cc2)C2C=CS(=O)(=O)C2)cc1 (stereo not drawn),13.6
11,O=C1CC(/C=C/c2ccc(Cl)cc2)=Nc2ccccc2N1,11.3
12,c1ccc(CSc2ncn(-c3ccccc3)n2)cc1,-8.38
13,CCC(=O)N1CCN(CCN=CC2=C(O)CC(c3cccs3)CC2=O)CC1 (stereo not drawn),-9.43
14,O=C(Cc1ccccc1)Nc1nonc1NC(=O)c1ccccc1,17.1
15,CCSc1nnc(NC(=O)[C@@H](NC(=O)c2ccccc2)C(C)C)s1,10.3
16,CCCCOc1ccc(/C(O)=C2/C(=O)C(=O)N(CCCOC)C2c2ccncc2)cc1 (stereo not drawn),18.2
17,CN1c2ccsc2/C(=N/NC(=O)c2c(F)cccc2F)CS1(=O)=O,4.31
18,O/N=C(/CCc1ccccc1)c1ccc2c(c1)OCCO2,-13.2
19,CC(=O)N1CCN(C(=O)c2oc3ccccc3c2C)CC1,8.84
20,O=C(COC(=O)c1ccccc1C(=O)c1ccc(Cl)cc1)NCCc1ccccc1,-18.7
21,Cc1cc(C)c2nc(SC3CCOC3=O)cc(C)c2c1 (stereo not drawn),4.23
